The record followed here is article PMC6919601, “Identification of Plasmodium dipeptidyl aminopeptidase allosteric inhibitors by high throughput screening” (PLoS ONE, 2019).

About 230 (0.21%) of roughly 110,000 compounds showed an effect of 50% or more. Some of the results follow.
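Note: 30 min substrate incubation versus DMSO and 10 µM JCP410 controls.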

The target of this assay is DPAP1 (Plasmodium falciparum, UniProt Q8IIJ9). Put plainly: primary screen, percent inhibition; read by cleavage of a fluorogenic dipeptide substrate; higher = more effect of the substance. Further details: species or system P. falciparum D10 trophozoite lysates; single well.
Sequence of DPAP1 (Q8IIJ9 whole entry, looked up): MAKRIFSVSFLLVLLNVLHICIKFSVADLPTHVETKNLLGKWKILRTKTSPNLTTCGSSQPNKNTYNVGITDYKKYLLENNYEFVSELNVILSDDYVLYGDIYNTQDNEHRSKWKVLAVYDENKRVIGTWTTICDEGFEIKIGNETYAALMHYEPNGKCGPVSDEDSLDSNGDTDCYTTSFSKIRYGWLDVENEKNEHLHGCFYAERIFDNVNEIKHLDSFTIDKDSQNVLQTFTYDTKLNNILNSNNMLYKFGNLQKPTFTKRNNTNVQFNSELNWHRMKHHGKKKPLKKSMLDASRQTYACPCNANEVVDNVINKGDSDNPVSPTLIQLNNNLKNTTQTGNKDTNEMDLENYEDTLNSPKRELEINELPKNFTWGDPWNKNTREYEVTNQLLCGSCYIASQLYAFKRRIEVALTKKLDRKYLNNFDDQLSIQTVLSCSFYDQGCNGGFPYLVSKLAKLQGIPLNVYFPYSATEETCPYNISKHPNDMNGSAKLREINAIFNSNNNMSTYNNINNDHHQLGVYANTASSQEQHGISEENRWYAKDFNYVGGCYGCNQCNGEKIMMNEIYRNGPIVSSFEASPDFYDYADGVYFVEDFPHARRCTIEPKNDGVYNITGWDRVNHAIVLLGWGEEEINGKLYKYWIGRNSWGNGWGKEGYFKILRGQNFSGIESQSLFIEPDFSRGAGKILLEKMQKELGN
In the case of `CCNC(=O)/C(C#N)=C/c1c(Oc2ccc(C(C)(C)C)cc2)nc2ccccn2c1=O`, the “% Inhibition @ 10 uM” value was determined as 6.78%. For `Cc1c(CCO)c(O)oc2nnc(-c3ccccc3)c1-2` the value was -3.14%. As for `CCN(CCO)Cc1csc2c(Cl)cccc12`, the “% Inhibition @ 10 uM” value is reported as -0.641%. Take `CCCN1C/C(=C\c2cccc([N+](=O)[O-])c2)C2=NN(C(C)=O)C(c3cccc([N+](=O)[O-])c3)C2C1` (stereo not shown): the “% Inhibition @ 10 uM” value is given as 2.94%. Consider `CCOC(=O)N1CCC(NCCc2ccc(Cl)cc2)CC1`, for which the “% Inhibition @ 10 uM” value is -7.35%. `O=C(NCC1CCCO1)c1cc(O)nc2ccc(Br)cc12` (stereo not shown): the “% Inhibition @ 10 uM” value was found to be 6.32%.

As to `Cc1ccc2[nH]c(C)c(CCNC(=O)c3ccc(C(=O)c4ccccc4)o3)c2c1`, the “% Inhibition @ 10 uM” value was -2.63%.

Consider `CCNc1oc(/C=C/c2cccc(OC)c2)nc1C#N`, for which the “% Inhibition @ 10 uM” value was -0.808%. Consider `CCCCC/C(C)=C(\C#N)C(=O)OCC`, for which the “% Inhibition @ 10 uM” value is listed as -6.99%. `CCN1CCC(N(Cc2ccco2)C(=O)NC23CC4CC(CC(C4)C2)C3)CC1`: the “% Inhibition @ 10 uM” value is recorded as -8.86%. For `CCN(CC)CCCOC(=O)c1ccc(OC)c(O)c1`, the “% Inhibition @ 10 uM” value stood at 1.84%. On to `Cc1ccc(CN(C(=O)COc2cccc(C)c2C)C2CCS(=O)(=O)C2)o1` (stereo not shown), for which the “% Inhibition @ 10 uM” value was -4.64%. For `CSc1nc2ccc(N3C(=O)C4CCCCC4C3=O)cc2s1` (stereo not shown) the value was -1.78%; for `Cn1c(=O)n(C)c2c([N+](=O)[O-])nccc21`, -2.63%. `Clc1ccc(-n2nnnc2-c2ccccc2)cc1`: the “% Inhibition @ 10 uM” value is given as -4.32%. On to `Cc1ccc2nc3c(O)n(CC(=O)NCc4ccccc4Cl)ncc-3c2c1`, for which the “% Inhibition @ 10 uM” value is -2.71%. As to `COc1cccc(-c2cc(C(F)(F)F)n3ncc(C(=O)Nc4ccc(C#N)cc4)c3n2)c1`, the “% Inhibition @ 10 uM” value is on record as -4.49%. With `O=[N+]([O-])c1ccc(Cl)c(CN2CCN(c3cccc(C(F)(F)F)c3)CC2)c1`, the “% Inhibition @ 10 uM” value is reported as 4.67%. As to `COc1ccccc1C(=O)Nc1ccc(C)cn1`, the “% Inhibition @ 10 uM” value is -1.92%. For `COc1ccc(-c2cc(-c3ccc4ccccc4c3O)[nH]n2)cc1` the value was -1.33%; for `Cc1cc(C)n(-c2ccc(O)nn2)n1`, -0.828%.

In the case of `Cc1ccccc1CN(C)CCN(C)C`, the “% Inhibition @ 10 uM” value was found to be 3.53%. Regarding `COc1cc2c(cc1OC)/C(=C\c1ccccc1)C(=O)OC2`, the “% Inhibition @ 10 uM” value is on record as 3.03%.

For the compound `NC(=O)c1nn(-c2ccccc2)nc1NC(=O)CN1CCOCC1`, the “% Inhibition @ 10 uM” value is given as -2.19%. In the case of `COc1cc(OC)cc(C(=O)Nc2c(C)cccc2C(C)C)c1`, the “% Inhibition @ 10 uM” value is given as -1.11%.

Take `CC(C)(C)NCc1ccccc1OCc1cccs1`: the “% Inhibition @ 10 uM” value was -4.7%. Regarding `CCCN(CCC)CCNC(=O)C1CCN(C2=NS(=O)(=O)C(c3ccc(C)c(C)c3)=C2C)CC1`, the “% Inhibition @ 10 uM” value is reported as 1.63%. For `CC(C)(C)c1ccc(OCC(O)CN2CCCC2)cc1` (stereo not shown) the value was 0.634%; for `O=C1C2CC=CCC2C(=O)N1c1ccccc1Cl` (stereo not shown), -2.8%; for `COc1ccc(CN=C(N)N)cc1`, -3.41%. For `CC(C)CNP(=S)(c1ccccc1)C(C)(C)C` (stereo not shown) the value was 1.12%; for `C=CCN1C(=O)S/C(=C/c2ccc(N(C)C)c(Br)c2)C1=O`, 1.35%; for `COc1ccccc1-c1c(C)nn2c(NCCCN3CCCC3=O)cc(C)nc12`, -3.7%. On to `COCCN1C(=O)/C(=C\c2ccc(Cl)cc2)C(C(=O)OC)=C1C`, for which the “% Inhibition @ 10 uM” value came to 1.81%.

Turning to `CCOc1ccc2cc(C(=O)NCc3ccccc3)c(=N)oc2c1`, the “% Inhibition @ 10 uM” value is on record as -1.26%. Consider `COc1cc(-c2nc3s/c(=C\C=C\c4ccccc4)c(=O)n3n2)cc(OC)c1OC`, for which the “% Inhibition @ 10 uM” value was -4.85%. The figure for `O=C(Nn1cnnc1)c1ccccc1Cl` is 4.1%; for `O=C(CC1SC(NCc2ccccc2)=NC1=O)Nc1ccccc1` (stereo not shown) it is -4.68%; for `CCOc1ccc(N2C(=O)CC(NC3CCCC3)C2=O)cc1` (stereo not shown) it is -3.03%. On to `COc1ccc(NC(=O)CSc2ccccc2)cc1OC`, for which the “% Inhibition @ 10 uM” value is reported as -4.13%. As for `COc1ccccc1CNS(=O)(=O)c1ccc(NC(C)=O)cc1`, the “% Inhibition @ 10 uM” value is 5.09%. The figure for `Cc1cc(C)nc(NC2=NCCN2C(=O)Nc2ccc(Cl)c(Cl)c2)n1` is -2.21%; for `O=C1CCNc2ccc(-c3ccccc3)cc21` it is -4.96%; for `O=C(O)c1ccccc1C(=O)Nc1cccc2c(NC(=O)c3ccccc3C(=O)O)cccc12` it is -5.51%.

Turning to `CCCCN(C)C(=O)c1nc(-c2ccc(C)cc2)n2c1CCCCC2`, the “% Inhibition @ 10 uM” value was -1.69%.

Take `CC1=C(C#N)C(=O)N(CC(C)O)C(=O)/C1=C/c1ccc(-c2cccc(Cl)c2Cl)o1` (stereo not shown): the “% Inhibition @ 10 uM” value worked out at 4.85%. For `Cc1cc(OCC(=O)N2CCCC2)ccc1Br` the value was -1.5%. On to `COc1ccc(-c2noc(CN(C(=O)COc3ccc(Br)cc3)C(C)C)n2)cc1`, for which the “% Inhibition @ 10 uM” value is given as 2.23%. Take `CCN(Cc1ccccc1)Cc1csc(C)c1C`: the “% Inhibition @ 10 uM” value is listed as 7.86%.

For the compound `CNC(=O)C1CC(=O)N(Cc2ccc(OC)cc2)/C(=N/c2ccc(Cl)cc2)S1` (stereo not shown), the “% Inhibition @ 10 uM” value is -3.04%. On to `O=C(CNc1ccccc1)N1c2ccccc2Sc2ccccc21`, for which the “% Inhibition @ 10 uM” value is 2.42%. As for `CC(=O)CC(C)(C)S(=O)(=O)c1ccc(Br)cc1`, the “% Inhibition @ 10 uM” value was determined as 4.57%. As for `CN1c2ccccc2N(C)C1c1cccs1`, the “% Inhibition @ 10 uM” value was -7.34%. For `Cn1c(=O)c2c(nc(NCc3cccnc3)n2Cc2cccc3ccccc23)n(C)c1=O`, the “% Inhibition @ 10 uM” value amounted to 3.06%. Regarding `Cc1ccc(S(=O)(=O)Nc2ccccc2)cc1N`, the “% Inhibition @ 10 uM” value is -4.35%. The figure for `CC(=O)Nc1c2c(nn1-c1ccc(C)cc1)CS(=O)(=O)C2` is 0.566%; for `Cc1ccc(-n2c(C)cc(/C=C3/C(=N)N4C(=NC3=O)SN=C4S(C)(=O)=O)c2C)cc1Cl` it is 6.59%. The figure for `CC1CN(C(=O)c2cccs2)CCN1C(=O)c1cccs1` (stereo not shown) is -2.37%; for `CC(C)(CC(=O)O)CC(=O)Nc1ccc(Cl)cc1Cl` it is 3.69%; for `CCOC(=O)C1CCN(C2C3CC4CC(C3)CC2C4)CC1` (stereo not shown) it is 4.75%. For `O=C(NCc1nc(-c2ccc(Cl)cc2)no1)C12CC3CC(CC(C3)C1)C2` the value was -4.82%; for `CCCNC(=S)NC(c1ccccc1)(c1ccccc1)c1ccccc1`, -0.415%; for `CCOc1ccc(/C=C2\CCC(C3CCCC3)C2=O)cc1` (stereo not shown), 4.06%. On to `COCCNC(=O)C1c2ccccc2C(=O)N2CCCCC12` (stereo not shown), for which the “% Inhibition @ 10 uM” value was found to be 1.91%. Turning to `Cc1ccc(C(=O)CN2C(=O)S/C(=C\c3ccc(OCC(=O)O)cc3)C2=O)cc1`, the “% Inhibition @ 10 uM” value is 1.59%. For `Cc1cc(C)c(S(=O)(=O)Nc2ccccc2C)c(C)c1` the value was -5.32%.

With `COc1ccc(CN2CC(C)OC(C)C2)cc1O` (stereo not shown), the “% Inhibition @ 10 uM” value is on record as -9.96%.
